Laboratory results reported in patent US20250195677A1 (CEPHALON, published 2025).
Numbering of substitutions follows the chain as printed. Names and notes keep the numbering of the source.

Columns and labels:
[1] = molecular target: T1, PD1; assay: SPR, H7-767 immobilised on a CM5 chip, recombinant human PD-1 as analyte (capture step)
T1 construct: The legend says only recombinant human PD-1

[2] = molecular target: T2, human PD-1 (amino acids 1-185) stably expressed on Jurkat cells (human, UniProt Q15116 part only); assay: flow cytometry, Jurkat+hPD-1 cells, APC anti-human IgG Fc, gMFI; cells first saturated with 10 µM anti-hPD-1 #2-mIgG2b-N297A
T2 construct: extracellular domain and a portion of the transmembrane domain, on cells; also called hPD-1; Jurkat+hPD-1 cell line

[3] = molecular target: T2, human PD-1 (amino acids 1-185) stably …; assay: flow cytometry, Jurkat+hPD-1 cells, APC anti-human IgG Fc, gMFI; no competitor
[4] = molecular target: T3, cynomolgus PD-1 (1-185), HA-tagged, transiently expressed on HEK-293T cells (cynomolgus, UniProt B0LAJ3 25-185); assay: flow cytometry, HEK-293T cells transiently expressing HA-tagged cynomolgus PD-1, gated on HA-positive cells, APC anti-human IgG Fc, gMFI
T3 construct: also called cyno PD-1; not shown: HA tag and its junction

T2 sequence (Q15116 21-185 limits assumed, form in doubt): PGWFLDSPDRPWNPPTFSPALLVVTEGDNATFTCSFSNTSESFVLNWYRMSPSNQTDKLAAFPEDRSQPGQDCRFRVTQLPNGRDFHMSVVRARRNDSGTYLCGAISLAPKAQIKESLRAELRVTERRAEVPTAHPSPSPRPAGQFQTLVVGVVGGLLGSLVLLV
T1 sequence (chain, as listed by the source limits assumed): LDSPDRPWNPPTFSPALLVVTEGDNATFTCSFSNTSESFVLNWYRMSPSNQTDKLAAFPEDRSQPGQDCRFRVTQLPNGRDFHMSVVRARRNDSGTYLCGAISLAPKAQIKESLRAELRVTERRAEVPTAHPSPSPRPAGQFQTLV

B1: H7-767 (other)
heavy: EVQLLESGGGLVQPGGSLRLSCAASGFTFKSYAMHWVRQAPGKGLEWVSAIVYSGGSTYYADSVKGRFTISRDNSKNTLYLQMNSLRAEDTAVYYCAKYDRASYFYDAMDVWGQGTTVTVSS[sequence of human IgG1 constant region with L235A G237A (EU numbers) omitted]APASSSTKKTQLQLEHLLLALQMILNGINNYKNPKLTEMLTFKFYMPKKATELKHLQCLEEELKPLEEVLNLAQSKNFHLRPRDLISNINVIVLELKGSETTFMCEYADETATIVEFLNRWITFAQSIISTLT
light: EIVLTQSPGTLSLSPGERATLSCRASQSISSSFLAWYQQKPGQAPRLLIYDASDRATGIPDRFSGSGSGTDFTLTISRLEPEDFAVYYCQQYYDWPPLSFGGGTKVEIKRTVAAPSVFIFPPSDEQLKSGTASVVCLLNNFYPREAKVQWKVDNALQSGNSQESVTEQDSKDSTYSLSSTLTLSKADYEKHKVYACEVTHQGLSSPVTKSFNRGEC
notes: anti-hPD-1 antibody with attenuated hIL-2 directly fused to the heavy chain C-terminus; also called H7-632-hIgG1-LAGA-df-hIL-2 (T3A/D20A/R38E/C125A)
binding result [1]: binds

B2: 2H7-hIgG4-df-hIL-2 (D20A/R38E) (other)
heavy: EVQLLESGGGLVQPGGSLRLSCAASGFTFKDYCMTWVRQAPGKGLEWVSAIVYSGGSTYYADSVKGRFTISRDNSKNTLYLQMNNLRAEDTAVYYCAKYTRASYFYDAMDVWGQGTTVTVSSASTKGPSVFPLAPCSRSTSESTAALGCLVKDYFPEPVTVSWNSGALTSGVHTFPAVLQSSGLYSLSSVVTVPSSSLGTKTYTCNVDHKPSNTKVDKRV[sequence of about 350 residues with a human IgG4 Fc omitted]
light: B1 light with S30G, S31K, D54T, T57A, G58D, D61A, R78S
EC50 (read off the curve) [2]: ~0.7 nM | EC50 (read off the curve) [3]: ~0.2 nM

B3: C51E6-5-hIgG4-L6-hIL-2 (D20A/R38E) (other)
heavy: QVQLVQSGSELKKPGASVKVSCKASGYSLYGTSMHWVRQAPGQGLEWMGYISPFTGRATYAQGFTGRFVFSLDTSVSTAYLQISSLKAEDTAVYYCARDYDYRYYYAMDYWGQGTTVTVSSASTKGPSVFPLAPCSRSTSESTAALGCLVKDYFPEPVTVSWNSGALTSGVHTFPAVLQSSGLYSLSSVVTVPSSSLGTKTYTCNVDHKPSNTKVDKRV[sequence of about 350 residues with a human IgG4 Fc omitted]
light: EIVLTQSPDFQSVTPKEKVTITCTASESVPPQFLHWYQQKPDQSPKLLIYASRERASGVPSRFSGSGSGTDFTLTINSLEAEDAATYYCHQFHRSPLTFGGGTKLEIKRTVAAPSVFIFPPSDEQLKSGTASVVCLLNNFYPREAKVQWKVDNALQSGNSQESVTEQDSKDSTYSLSSTLTLSKADYEKHKVYACEVTHQGLSSPVTKSFNRGEC
EC50 (read off the curve) [4]: ~6 nM

B4: 1H3-hIgG4-df-hIL-2 (D20A/R38E) (other)
heavy: EVQLVESGGGLVQPGRSLKLSCAVSGFTFSDYAMAWVRQAPKKGLEWVATISYDGSRTYYRDSVKGRFTISRDNAKITLYLQMDSLRSEDTATYYCARHGSGYFDYWGQGVMVTVSSASTKGPSVFPLAPCSRSTSESTAALGCLVKDYFPEPVTVSWNSGALTSGVHTFPAVLQSSGLYSLSSVVTVPSSSLGTKTYTCNVDHKPSNTKVDKRV[sequence of about 350 residues with a human IgG4 Fc omitted]
light: DTVLTQSPALAVSPGERVTISCRASESVRTGVHWYQQKPGQQPKLLIYGASNLESGVPARFSGSGSGTDFTLTIDPVEADDTATYFCQQSWNDPFTFGSGTKLEIKRTVAAPSVFIFPPSDEQLKSGTASVVCLLNNFYPREAKVQWKVDNALQSGNSQESVTEQDSKDSTYSLSSTLTLSKADYEKHKVYACEVTHQGLSSPVTKSFNRGEC
notes: negative control fusion protein; also called isotype control anti-DNase 1H3-hIgG4-df-hIL-2 (D20A/R38E)
binding result [4]: no binding (tested: about 560 nM)
